Assay results: PubChem BioAssay AID504832 (National Center for Advancing Translational Sciences (NCATS), 2011)
The campaign covered roughly 310,000 compounds. About 18,000 (5.8%) were called active. Inconclusive results, whose numbers are uncertain, are shown with a selection of clear calls. The call rests on the fitted dose curve; in most records, active means well fitted inhibition curve with a large enough effect; inconclusive means small, poorly fitted or top-dose-only effect, or another doubt; inactive means no such curve, though single readings can be large or run the other way. Potencies of inconclusive entries are left out as doubtful fits.

Test: Primary qHTS for delayed death inhibitors of the malarial parasite plastid, 48 hour incubation
Conditions: P. falciparum luciferase growth in erythrocytes; series mostly up to 28.7 µM
In short: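 Cell-based growth assay: transgenic P. falciparum expressing firefly luciferase, cultured in red cells within RPMI 1640 containing 0.5% w/v Albumax, 24 mM bicarbonate and gentamycin. A drop in luciferase activity indicates inhibition.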
On the % scale 0 is the no-effect control and ±100 the full control effect; potency means the concentration at half of the fitted maximal effect; tags describe the fitted curve by direction and shape.

Compound | Potency | activity change, negative = inhibition
Cn1cccc1Cc1nnc(SCC(=O)NCc2ccco2)n1-c1ccc(F)cc1 | inactive | –
CCOC(=O)C1CCCN(c2ccc(NC(=O)c3snc4c(=O)[nH]c(C)nc34)cc2)C1 (centres undefined) | inconclusive [inhibitor, full curve] | –
CCCNC(=S)N1CCN(c2nc(-c3cccc(OC)c3)cs2)CC1 | inconclusive [inhibitor, full curve, poor fit] | –
COc1ccccc1NC(=S)N(Cc1ccco1)Cc1cc2ccc(C)c(C)c2[nH]c1=O | active: 11.7 µM | –
COc1ccc(-c2cc(C(F)F)n3ncc(C(=O)Nc4ccc(C(=O)N5CCOCC5)cc4)c3n2)cc1 | inconclusive [inhibitor, full curve] | –
CCOC(=O)C(NC(=O)c1cccc(Cl)c1)(Nc1sc2c(c1C(N)=O)CCC2)C(F)(F)F (centres undefined) | inconclusive [inhibitor, single point] | –
C=CCn1c2ccccc2c(=O)c2cc(C#CC3(O)CCCCC3)ccc21 | inactive | –
Cc1cc2cc(C#N)c(SCC(=O)Nc3nonc3C)nc2cc1C | inactive | –
CCN1CCN(c2cc(C)c3cc(NC(=S)N4CCN(c5ccccc5F)CC4)ccc3n2)CC1 | inconclusive [inhibitor, single point] | –
COc1cc(SC)ccc1C(=O)N(C)CC(=O)Nc1cccc2ccccc12 | inconclusive [inhibitor, single point] | –
Cc1cc(S(=O)(=O)N2CCCOC2CNC(=O)C(=O)NCCc2ccco2)ccc1F (centres undefined) | inactive | –
O=C(CSc1nc2cc(Cl)ccc2c(=O)n1Cc1ccco1)Nc1ccc(S(=O)(=O)N2CCOCC2)cc1 | inconclusive [inhibitor, single point] | –
O=C(Nc1cccc(-c2cccc(F)c2)c1)C1CCN(C2CCOCC2)CC1 | inconclusive [inhibitor, single point] | –
COc1ccc(CSCC(=O)N/N=C/c2ccccc2O)cc1 | inconclusive [inhibitor, single point] | –
C/C(=N/OC(=O)c1c(-c2ccccc2Cl)noc1C)c1cnccn1 | inactive | –
COc1cc2c(cc1OC)-c1cc(Nc3ccc(N(C)C)cc3)nc(=O)n1CC2 | inconclusive [inhibitor, single point] | –
COC(=O)[C@H](CCSC)NC(=O)Nc1ccc(S(N)(=O)=O)cc1 | inconclusive [inhibitor, single point] | –
COc1ccc(C(=O)/C=C/C(=O)N(CC(=O)NC2CCCCC2)Cc2ccccc2)c(O)c1 | inconclusive [inhibitor, single point] | –
CC(C)c1ccc(CC(NC(=O)c2ccccc2)C(=O)NCC(=O)O)cc1 (centres undefined) | – | inactive: 3.31% [at 5.75 µM]
O=C(CSc1nc(=O)n(CCCN2CCOCC2)c2c1CCC2)Nc1cccc(F)c1 | inconclusive [inhibitor, single point] | –
O=C1C=C(c2ccc(-c3ccccc3)cc2)C[C@@H](c2ccc(F)cc2)C1 | inactive | –
O=C(NC(=S)NNC(=O)c1ccccc1[N+](=O)[O-])c1ccccc1 | inconclusive [inhibitor, partial curve, poor fit] | –
CC(C)CNc1c2c(nc3ccccc13)CCC2 | active: 10.4 µM | –

Compound | Potency | activity change, negative = inhibition
CN(C(=O)CC1C(=O)NCCN1CC(c1ccccc1)c1ccccc1)C(C1CC1)C1CC1 (centres undefined) | inconclusive [inhibitor, partial curve] | –
CCc1ccccc1NC(=O)C1CCCN(c2nn3c(=O)cc(C)nc3s2)C1 (centres undefined) | inconclusive [inhibitor, single point] | –
CC1CCC(NC(=O)CN(C)S(=O)(=O)c2ccc3c(c2)CCC(=O)N3)CC1 (centres undefined) | inactive | –
COCCn1cnc2c1c(=O)n(Cc1ccc(C#N)cc1)c(=O)n2Cc1ccccc1 | inconclusive [inhibitor, full curve, poor fit] | –
CSc1ncccc1C(=O)N1CCN(S(=O)(=O)c2ccc(F)cc2)CC1 | inactive | –
O=C1N=C(N2CCOCC2)S/C1=C\c1ccncc1 | inconclusive [inhibitor, partial curve, poor fit] | –
CC(C)C[C@H](NC(=O)C1CCN(C(=O)[C@H](Cc2ccccc2)NC(=O)OC(C)(C)C)CC1)C(=O)O | inactive | –
Oc1ccccc1N=Nc1ccccc1O | active: 2.62 µM | –
CCc1c(C)nc2ncnn2c1N1CCC(C(=O)NCc2ccc3c(c2)OCO3)CC1 | inconclusive [inhibitor, partial curve, poor fit] | –
O=S(=O)(NCc1csc(-c2cccnc2)n1)c1cccs1 | inactive | –
CNC(=O)CSc1nnc(-c2ccco2)n1-c1cccc(OC)c1 | inactive | –
CCN1CCN(c2cc3nc(C)n(Cc4ccccc4)c(=O)c3cc2NC(=O)c2ccccc2F)CC1 | inconclusive [inhibitor, single point] | –
CCOC(=O)c1c(C)[nH]c(C)c1S(=O)(=O)N(C)CC(=O)Nc1cc(C)ccc1OC | inconclusive [inhibitor, partial curve, poor fit] | –
O=[N+]([O-])c1cc(NS(=O)(=O)c2ccc(Cl)nc2)ccc1Cl | inconclusive [inhibitor, single point] | –
Cn1ccnc1C1CCCCN1C(=O)c1cc(COc2ccc(F)cc2F)on1 (centres undefined) | inconclusive [inhibitor, full curve] | –
COc1ccc(-n2c(-c3ccc(F)cc3)cnc2SCC(=O)NCc2ccco2)cc1 | inconclusive [inhibitor, single point] | –
COc1ccccc1NC(=O)c1cnc(Nc2ccccc2OC)c2ccccc12 | inconclusive [inhibitor, full curve] | –
O=C(Nn1cnnc1)c1ccc(Cl)cc1[N+](=O)[O-] | inactive | –
O=C(Nc1sc2c(c1C(=O)O)CCCCC2)c1ccccc1F | inactive | –
COC(=O)c1sc(-c2ccccc2)cc1NC(=O)c1cc(OC)cc(OC)c1 | inconclusive [inhibitor, single point] | –
CC1(C)CC(=O)c2cc(N=C/C(C(=O)c3ccccc3)=C(\O)c3ccccc3)c(=O)oc2C1 | inactive | –
CCC(C)NC(=O)CSc1nc2ccccc2c(=O)n1-c1c(C)n(C)n(-c2ccccc2)c1=O (centres undefined) | inactive | –
CN(C)c1cc2c(c(N(C)C)c1)C(=O)c1ccccc1C2=O | inconclusive [inhibitor, single point] | –

Compound | Potency | activity change, negative = inhibition
COc1ccccc1NC(=O)CCc1nc(-c2ccccc2F)no1 | inactive | –
CCc1nc(SCC(=O)NNC(=O)C(C)C)c2ccccc2n1 | inconclusive [inhibitor, single point] | –
Cn1c(CN2CCCC2)nc2cc(NC(=O)COc3ccc(Cl)cc3)ccc21 | inconclusive [inhibitor, single point] | –
COCCn1c(=O)[nH]c2cc(C(=O)NCCN3CCN(c4ccccc4F)CC3)ccc2c1=O | inactive | –
CC1CCCCC1NC(=O)c1c(O)nc2ccccn2c1=O (centres undefined) | active: 5.22 µM | –
Cc1cc(NCCN2CCOCC2)n2ncc(-c3ccccc3)c2n1 | inactive | –
Cc1nn(-c2ccc(N3CCOCC3)nn2)c(C)c1CCC(=O)NCc1ccccc1F | inactive | –
COC(CNC(=O)C(=O)Nc1ccc2c(c1)N(S(=O)(=O)c1cccs1)CCC2)OC | inconclusive [inhibitor, single point] | –
CN=C(Nc1cc(Cl)ccc1Cl)SC1CC(=O)N(c2ccc(C(=O)OC)cc2)C1=O (centres undefined) | inconclusive [inhibitor, single point] | –
Cc1cc(OC(=O)c2cc(Cl)ccc2Cl)c([N+](=O)[O-])c(=O)[nH]1 | inactive | –
CCC(C)[C@H]1CNCCN1CCc1cccc2ccccc12 (some centres undefined) | inconclusive [inhibitor, single point] | –
CCOC(=O)c1c(S(=O)(=O)N(C)Cc2ccco2)c(C)n(C)c1C | inconclusive [inhibitor, single point] | –
CCOc1ccc(CCNC(=O)CCOc2cc(C)ccc2C)cc1OCC | inconclusive [inhibitor, single point] | –
CSCCC(NS(=O)(=O)c1cccc(C(F)(F)F)c1)C(=O)N(C)Cc1ccc2c(c1)OCCO2 (centres undefined) | inconclusive [inhibitor, single point] | –
c1ccc2nc3c(nc2c1)c1ccccc1n3CCN1CCOCC1 | inconclusive [inhibitor, single point] | –
CCOc1ccc(CCNC(=O)CN2C(=O)NC3(CCCCCC3)C2=O)cc1OCC | active: 13.1 µM | –
O=C(NC(=O)N1CCC2(CC1)OCCO2)c1ccc(Cl)cc1 | inconclusive [inhibitor, partial curve, poor fit] | –
O=C(Nc1ccc(Cl)cn1)c1cccc(S(=O)(=O)N2CCOCC2)c1 | inactive | –
COCCCn1c(SCc2nnc(-c3ccc(OC)c(OC)c3)o2)nc2ccccc2c1=O | inconclusive [inhibitor, partial curve] | –
COC(=O)C1=C(c2ccc(F)cc2OCc2ccccc2)C[C@@H]2CC[C@H]1N2C(=O)NCc1cccc(OC)c1 | active: 9.28 µM | –
CCOC(=O)Cc1cc(=O)n2[nH]cc(-c3cccc(Br)c3)c2n1 | inactive | –
CCC1CCCCN1CCCNC(=O)CSc1nc2nc(C)c(Cc3ccc(C)cc3)c(C)n2n1 (centres undefined) | inconclusive [inhibitor, partial curve] | –
CSCCC(NS(=O)(=O)/C=C/c1ccccc1)C(=O)NCCc1ccc(S(N)(=O)=O)cc1 (centres undefined) | inconclusive [inhibitor, full curve, poor fit] | –
